# In PubChem BioAssay AID1240 (Sanford-Burnham Center for Chemical Genomics, 2008):
# Among all 50,000 compounds or so, about 800 (1.6%) showed an effect of 50% or more. Some of the results follow.
# Molecular target: Bcl-2-like protein 10 (Homo sapiens) (UniProt Q9HD36)
# Experiment: Phenotype converters, Bcl-B/TR3 peptide binding displacement, primary biochemical FP (AID 1240);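 also: 0% = Bcl-B with tracer peptide and DMSO and 100% = tracer peptide lacking Bcl-B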
# Details: GST-Bcl-B / FITC-TR3 peptide fluorescence polarization; stronger effect = higher value; compound at 3.75 mg/L
# Chain of UniProt Q9HD36 (Q9HD36 whole entry, looked up): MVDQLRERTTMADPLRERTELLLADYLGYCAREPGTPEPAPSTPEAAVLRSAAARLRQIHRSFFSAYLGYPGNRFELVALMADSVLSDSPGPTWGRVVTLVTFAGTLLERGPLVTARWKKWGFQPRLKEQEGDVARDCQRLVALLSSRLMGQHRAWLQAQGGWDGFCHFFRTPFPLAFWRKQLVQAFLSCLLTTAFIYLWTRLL
row,SMILES,displacement [%]
1,COc1ccc(N2C(=O)NC(=O)/C(=C/c3cc(Cl)c(OCCOc4ccccc4)c(OC)c3)C2=O)cc1,11.9
2,COC(=O)c1cccc(NC(=O)/C=C/c2ccc(OC)cc2)c1,0.1
3,COc1cccc2c1NC(c1ccc(Cl)cc1)C1CC=CC21 (configuration not stated),9.1
4,Cc1cccc(OCc2nc(-c3ccc([N+](=O)[O-])cc3)no2)c1,-3.8
5,CCc1ccc(/C=C(/C#N)C(N)=O)s1,-0.3
6,O=S(=O)(c1ccc(F)cc1)n1cccc1,-0.7
7,CC(=O)Nc1ccc(Cl)c(-c2nc3cc(Cl)ccc3o2)c1,-24.7
8,CC1=C/C(=N\N=C2\NC(=O)C(CC(=O)Nc3ccccc3F)S2)CC(C)(C)C1 (configuration not stated),-1.5
9,COC(=O)c1c(NC(=O)c2ccccc2OC)sc2c1C(C(=O)OC)CC2 (configuration not stated),-24.8
10,COCCCNC(=O)/C(=C\c1ccc(N(C)C)cc1)NC(=O)c1ccc(C)cc1,7.3
11,COc1ccc(OC)c(N(CC(=O)Nc2ccc(C)cc2)S(C)(=O)=O)c1,6.5
12,CCOC(=O)c1c(NC(=O)c2ccc(Cl)s2)sc2c1CCC(C)C2 (configuration not stated),1.8
13,C(=N\N1CCN(c2ccccn2)CC1)/c1cccs1,-0.3
14,Cc1ccc2[nH]c3nc(N/N=C/c4ccc([N+](=O)[O-])cc4)nnc3c2c1,6
15,Cc1cccc(C)c1NC(=O)/C=C/c1ccc2c(c1)OCO2,14.1
16,O=C(NCc1ccco1)C(=O)Nc1ccccc1F,-17.9
17,O=C(O)CCCN1C(=O)c2cccc3cccc(c23)C1=O,1.4
18,CC(C)C(NC(=O)OC(C)(C)C)C(=O)O (configuration not stated),-2.3
19,Cc1ccc(N[C@@H]2O[C@H](CO)[C@@H](O)[C@H](O)[C@@H]2O)cc1,11
20,COc1ccc(C(=O)Nc2ccc3c(c2)Cc2ccccc2-3)cc1Br,-4.6
21,COc1ccc(-c2cc(C(=O)NC(C)C)c3ccccc3n2)cc1OC,-7.2
22,CN1CCN(C(=O)c2cc3nc(-c4ccc(F)cc4)cc(C(F)(F)F)n3n2)CC1,0.3

row,SMILES,displacement [%]
1,COc1cc(/C=C2\SC(=S)N(NC(=O)c3ccc(O)c(OC)c3)C2=O)ccc1O,-7.3
2,CCN(CC)c1ccc(NC(=O)c2oc3ccccc3c2C)cc1,13.9
3,COc1ccccc1CNC(=O)/C=C/c1ccc(Cl)cc1Cl,-2.4
4,C/C(=N\NC(=O)c1ccncc1)c1ccco1,-4.8
5,CCOc1ccc2cc(/C=N/Nc3nc(-c4ccccc4)c4cc(Cl)ccc4n3)c(=O)[nH]c2c1,4
6,O=C1CSC(c2ccccc2F)N1Cc1ccccc1 (configuration not stated),1.9
7,Oc1ccccc1/C=N/N=C/c1ccccc1O,-5.2
8,COC(=O)CN1C(c2cc(OC)c(OC)c(OC)c2)=Nc2ccc(Br)cc2C1c1ccccc1 (configuration not stated),-10.1
9,COc1cc(/C=C2/SC(=S)N(CCC(=O)Nc3ccccc3C(=O)O)C2=O)cc(OC)c1OC,12.2
10,CC(C)OC(=O)COc1ccc2c(c1)oc(=O)c1ccccc12,10.1
11,COc1cc(NC(=O)c2ccc(Br)o2)ccc1NC(=O)c1ccco1,37.2
12,Cc1ccc(NC(=O)/C(=C\c2cccnc2)NC(=O)c2ccc(C)cc2)cc1,0.7
13,Nc1nonc1-c1nc2ccccc2n1CC(=O)N/N=C\c1ccccc1OCC(=O)O,-0.7
14,Nc1c(C(=O)c2ccccc2)sc2nccc(NCc3ccccc3)c12,14.3
15,O=[N+]([O-])c1ccc(Cc2ncccc2O)cc1,2.7
16,O=C1NC(=O)N(c2cccc(Cl)c2)C(=O)/C1=C/c1ccc(O)c(Cl)c1,2.3
17,COc1cc(/C=C2\SC(N3CCC(C)CC3)=NC2=O)cc(OC)c1OC,-17
18,CCOc1ccc(NC(=O)c2c(O)c3ccccc3n(CC(C)C)c2=O)cc1,7.8
19,COc1ccc(/C=N/S(=O)(=O)c2cccs2)cc1OC,7.5
20,O=C(O/N=C1/CCCc2c1sc1nc3n(c(=O)c21)CCCCC3)c1ccc([N+](=O)[O-])cc1,4.1
21,COc1ccccc1N(CC(=O)Nc1ccc2ccccc2c1)S(=O)(=O)c1ccccc1,6.6
22,O=C(NN1CCOCC1)c1cc(-c2ccccc2)nc2ccccc12,8.7

row,SMILES,displacement [%]
1,COc1ccc2c(c1OC)C(=O)OC2Nc1cc(C)ccn1 (configuration not stated),8.3
2,O=C(NCc1ccccc1)c1ccc(S(=O)(=O)c2ccccc2)cc1,29.8
3,CC(C)NC(=O)c1nn2c(C(F)(F)F)c3c(nc2c1Cl)-c1ccccc1CC3,10.5
4,OC[C@H]1O[C@@H](Nc2cccc3ccccc23)[C@H](O)[C@@H](O)[C@H]1O,24.6
5,CC(=O)c1cccc(NC(=O)c2cccc(S(=O)(=O)N3CCOCC3)c2)c1,-5.1
6,CCOc1ccc(C(=O)Nc2ccc(NC(=O)c3cccc(Cl)c3)cc2)cc1,14.7
7,COc1cc(NC(=O)c2ccccc2C)c(OC)cc1NC(C)=O,-1.7
8,COc1ccc(NC(=O)c2cc(Cl)ccc2Cl)c(OC)c1,-2.8
9,COC(=O)C1=C(C)N=c2s/c(=C\c3c(F)cccc3Cl)c(=O)n2C1c1ccccc1 (configuration not stated),8.5
10,N#C/C(=C\c1ccc(-c2cc(Cl)ccc2Cl)o1)C(=O)Nc1sc2c(c1C(N)=O)CCCC2,-16.5
11,CCOC(=O)C1=C(c2ccccc2)NC(=S)NC1c1cccc(OC)c1OC (configuration not stated),1.1
12,CCOc1cc(OCC)cc(C(=O)Nc2ccc(Cl)cc2Cl)c1,7.6
13,CCOc1cc(/C=N/NC(=O)c2cccc(Cl)c2)ccc1OCCOCCOc1ccc(C)cc1,34.4
14,CCOC(=O)c1c(NC(C)=O)sc2c1CC(C)(CC)OC2 (configuration not stated),-4.6
15,CCOc1cccc(C2NC(=O)NC(C)=C2C(=O)OCC(Cl)(Cl)Cl)c1 (configuration not stated),-1.4
16,COc1ccccc1N(CC(=O)Nc1cc(Cl)cc(Cl)c1)S(=O)(=O)c1ccccc1,5.6
17,O=C(COC(=O)c1ccc2c(c1)OCO2)c1cccc([N+](=O)[O-])c1,-11.5
18,CCOc1ccc(C(=O)NCc2ccco2)cc1OCC,7.8
19,O=C(NC(NCc1ccco1)C(Cl)(Cl)Cl)c1ccco1 (configuration not stated),-1
20,CCOc1ccc(C(=O)Nc2sc3c(c2C(N)=O)CCCC3)cc1,39.8
21,O=c1cc(-c2ccccc2)nc2cc(-c3cccc(Cl)c3)[nH]n12,4.9
22,CCOC(=O)N1CCN(C(=O)/C(=C/c2ccc(OC)c(OC)c2)NC(=O)c2ccccc2)CC1,-4.6

row,SMILES,displacement [%]
1,COc1ccc(/C=C/C(=O)O)cc1S(=O)(=O)Nc1ccc(C(=O)O)c(O)c1,5.3
2,O=C1C=C(c2cccs2)CC(c2cccs2)C1n1cnc([N+](=O)[O-])c1 (configuration not stated),4.9
3,Cc1ccc(/C(O)=C2\C(=O)C(=O)N(CCCC(=O)O)C2c2ccc3c(c2)OCO3)cc1 (configuration not stated),-7.5
4,CCOc1ccc(C2Nc3ccccc3NC3=C2C(=O)CC(c2ccc(OC)cc2)C3)cc1OC (configuration not stated),-8.1
5,Cc1ccc(/C=C2/SC(=S)NC2=O)s1,10.6
6,CC1(C)CC(=O)C(=Cc2cn(-c3ccccc3)nc2-c2cccs2)C(=O)C1,5.4
7,CCOC(=O)c1sc2ncn(/N=C/c3ccc(O)cc3)c(=O)c2c1C,8.8
8,CC(Oc1ccccc1)C(=O)Nc1cc(Cl)cc(Cl)c1 (configuration not stated),18.9
9,Cc1ccc(NCC(=O)N/N=C\c2ccc(OCc3ccccc3)cc2)cc1,6.5
10,CC(=O)N(C)c1ccc(NC(=O)c2ccc([N+](=O)[O-])cc2)cc1,-10.8
11,CC1CN(C(=O)C(C)N2C(=O)c3ccccc3C2=O)CC(C)O1 (configuration not stated),-0.1
12,Cn1cccc1/C=C(\C(=O)c1ccccc1)c1nc2ccccc2[nH]1,3.9
13,Nc1nnc(SCC(=O)c2ccc(-c3ccccc3)cc2)s1,7.2
14,O=C(Nc1ccc(F)cc1F)c1cnn2c1NC(c1ccco1)CC2C(F)(F)F (configuration not stated),-0.6
15,COc1ccc([N+](=O)[O-])cc1N1C(=O)C=CC1=O,10.3
16,Nc1ccc(O)c2c1C(=O)c1c(N)ccc(O)c1C2=O,4.2
17,O=C1/C(=C\c2ccc(O)c([N+](=O)[O-])c2)SC(=S)N1c1ccccc1,2.3
18,COc1ccccc1/C=C/C(=O)c1ccc(Cl)cc1,-7.7
19,COc1ccc(OC)c(NC(=O)CSc2nc3ccccc3o2)c1,-10.7
20,COc1ccc(-c2csc(/C(C#N)=C\c3c[nH]c4ccccc34)n2)cc1,-0.7
21,CCCCNCCCCOc1ccccc1Cl,20.5
22,NCCCCNc1ccccc1[N+](=O)[O-],16.1

row,SMILES,displacement [%]
1,O=C(O)c1cccc(-c2ccc(/C=C3\SC(=S)N(Cc4ccccc4)C3=O)o2)c1,-96.5
2,Cc1cc(OCC(=O)NCc2ccc(Cl)cc2)ccc1Br,-4.5
3,CCOC(=O)c1c(NC(=O)c2ccco2)sc2c1CCC(CC)C2 (configuration not stated),3.4
4,COc1ccc(C(=O)Nc2ccccc2SC)cc1,-4.4
5,CCOc1ccc2nc(SCC(=O)Nc3ccc([N+](=O)[O-])cc3)sc2c1,4.8
6,Cc1c(Cl)c(=O)oc2cc(OCC(=O)c3ccc(Cl)cc3)ccc12,0.4
7,CCOc1ccc(/C=C2\SC(=S)N(CCC(=O)N3CCN(C)CC3)C2=O)cc1,1.2
8,Cc1ccc(N(C(=O)c2ccc(Br)o2)C2C=CS(=O)(=O)C2)cc1 (configuration not stated),9
9,Cc1nc(N)sc1C(=O)N/N=C/c1ccc(Cl)cc1Cl,-1.3
10,Cc1ccccc1N1C(=O)CSC1c1ccc([N+](=O)[O-])cc1 (configuration not stated),5
11,Cc1[nH]n(-c2ccccc2)c(=O)c1/C=N/c1nnc(-c2ccccc2)s1,-1.6
12,Cc1ccc2nc3nc(C)cc(C)c3c(N)c2c1,16.3
13,COc1ccc(-c2noc(-c3ccc(Cl)cc3Cl)n2)cc1,10.7
14,CCOC(=O)C1=C(O)/C(=C/c2cccs2)SC1=Nc1ccc(C)cc1,1.6
15,Cc1ccc(S(=O)(=O)NCCN2CCOCC2)cc1,-1.3
16,CCOC(=O)c1c(-n2c(C)cc(/C=C3\NC(=O)NC3=O)c2C)sc2c1CCCC2,17.7
17,COc1ccccc1/C=C(/NC(=O)c1ccc(C)cc1)C(=O)Nc1ccc(S(N)(=O)=O)cc1,-0.9
18,O=C(c1c(Cl)ccc(F)c1F)N1CCN(c2ccc(Cl)cc2[N+](=O)[O-])CC1,0.2
19,O=C(Oc1ccc(/C=c2/sc3nc4ccccc4n3c2=O)cc1)c1ccccc1[N+](=O)[O-],19.8
